Sequences with one replicate were seen in a single cluster, so their values are uncertain.
What follows are sequences tested on ATP (assay: switch fluorescence ratio, 500 uM ATP over buffer (Cy3 cluster intensity, sum of 5 cycles each) (fold (ratio)); higher = stronger signal-on switching upon ATP binding; sequences stand for … in TCGTCGGCAGCGTCAGATGTGTATAAGAGACAGTTTTTTTTTTTTTTTTTTTTTTTTT…TC). Details: aptamer strand: ATP DNA aptamer (quencher-CACCTGGGGGAGTATTGCGGAGGAAGG + anchor), 100 nM annealed; ATP concentration: 500 uM; one replicate.
Procedure, shortened: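 Exposure to 500 uM ATP lasted 15 min at 22 °C before imaging, and a selection-buffer image was taken beforehand, for Cy3-labelled switching-strand clusters on a modified Illumina MiSeq flow-cell annealed to 100 nM quencher-labelled ATP aptamer. Five buffer/ATP cycles were run with NaOH stripping and re-annealing between them. The fluorescence ratio per cluster is summed target-cycle over summed buffer-cycle Cy3 intensity, averaged per switch-domain sequence. Clusters outside 100-1000 RFU were excluded.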

**Q.** How did the switch fluorescence ratio turn out when AGAAAACACG was run?
**A.** 0.96

**Q.** For AGAAACGAGT, which switch fluorescence ratio is on record?
**A.** 0.98

**Q.** Which switch fluorescence ratio does the source give for AGAAACTTCG here?
**A.** 1.01

**Q.** How did the switch fluorescence ratio turn out when AGAAAGCCCT was run?
**A.** 1.03

**Q.** How did the switch fluorescence ratio turn out when AGAAAGTAAA was run?
**A.** 0.994

**Q.** Which switch fluorescence ratio does the source give for AGAAATACCT here?
**A.** 1.5

**Q.** With AGAAATGAGG as the sequence, how does the switch fluorescence ratio read?
**A.** 0.978

**Q.** Which switch fluorescence ratio does the source give for AGAAATGCGA here?
**A.** 1.12

**Q.** Which switch fluorescence ratio does the source give for AGAACGCAAA here?
**A.** 2.24

**Q.** How did the switch fluorescence ratio turn out when AGAACGTGGG was run?
**A.** 0.955

**Q.** With AGAACGTTTG as the sequence, how does the switch fluorescence ratio read?
**A.** 0.955

**Q.** How did the switch fluorescence ratio turn out when AGAACTAA was run?
**A.** 0.987

**Q.** How did the switch fluorescence ratio turn out when AGAAGACCAT was run?
**A.** 1.04

**Q.** How did the switch fluorescence ratio turn out when AGAAGACCCA was run?
**A.** 1.03

**Q.** With AGAAGAGAA as the sequence, how does the switch fluorescence ratio read?
**A.** 0.98

**Q.** How did the switch fluorescence ratio turn out when AGAAGAGGAT was run?
**A.** 1

**Q.** AGAAGCGAGC was tested. Which switch fluorescence ratio did it give?
**A.** 0.904

**Q.** How did the switch fluorescence ratio turn out when AGAAGGAGAG was run?
**A.** 1.02

**Q.** How did the switch fluorescence ratio turn out when AGAAGTCACG was run?
**A.** 1.07

**Q.** For AGAATAAAAT, which switch fluorescence ratio is on record?
**A.** 0.997

**Q.** With AGAATATCCG as the sequence, how does the switch fluorescence ratio read?
**A.** 1.02

**Q.** With AGAATCGCAC as the sequence, how does the switch fluorescence ratio read?
**A.** 1.14

**Q.** How did the switch fluorescence ratio turn out when AGAATGAGTC was run?
**A.** 0.98

**Q.** AGAATGCAGT was tested. Which switch fluorescence ratio did it give?
**A.** 1.02

**Q.** Which switch fluorescence ratio does the source give for AGAATGGCGT here?
**A.** 1.08

**Q.** Which switch fluorescence ratio does the source give for AGAATGTA here?
**A.** 0.995

**Q.** How did the switch fluorescence ratio turn out when AGAATTGGAA was run?
**A.** 0.999

**Q.** How did the switch fluorescence ratio turn out when AGAATTTAGG was run?
**A.** 1.02

**Q.** For AGACAACGAG, which switch fluorescence ratio is on record?
**A.** 1.02

**Q.** How did the switch fluorescence ratio turn out when AGACAAGAG was run?
**A.** 0.974

**Q.** Which switch fluorescence ratio does the source give for AGACAATTT here?
**A.** 0.97

**Q.** How did the switch fluorescence ratio turn out when AGACAGTATA was run?
**A.** 1.08

**Q.** AGACAGTGGA was tested. Which switch fluorescence ratio did it give?
**A.** 1.03

**Q.** Which switch fluorescence ratio does the source give for AGACATCCGG here?
**A.** 1.07

**Q.** How did the switch fluorescence ratio turn out when AGACCAGAAC was run?
**A.** 1.02

**Q.** AGACCCAGGT was tested. Which switch fluorescence ratio did it give?
**A.** 1.69

**Q.** AGACCCAGTA was tested. Which switch fluorescence ratio did it give?
**A.** 1.01

**Q.** For AGACCCATCC, which switch fluorescence ratio is on record?
**A.** 1.15

**Q.** For AGACGAACTT, which switch fluorescence ratio is on record?
**A.** 1.26

**Q.** For AGACGAGAAC, which switch fluorescence ratio is on record?
**A.** 1.09

**Q.** AGACGCTTTC was tested. Which switch fluorescence ratio did it give?
**A.** 1.6

**Q.** With AGACGGCCGT as the sequence, how does the switch fluorescence ratio read?
**A.** 1.37

**Q.** AGACGTATTT was tested. Which switch fluorescence ratio did it give?
**A.** 0.991

**Q.** Which switch fluorescence ratio does the source give for AGACTAGAG here?
**A.** 0.97

**Q.** For AGACTCGAAA, which switch fluorescence ratio is on record?
**A.** 1.05

**Q.** With AGACTCGATC as the sequence, how does the switch fluorescence ratio read?
**A.** 0.963

**Q.** For AGACTCTTTA, which switch fluorescence ratio is on record?
**A.** 0.98

**Q.** With AGACTGAGA as the sequence, how does the switch fluorescence ratio read?
**A.** 0.977

**Q.** With AGAGAAAGGA as the sequence, how does the switch fluorescence ratio read?
**A.** 1.04

**Q.** AGAGAATATC was tested. Which switch fluorescence ratio did it give?
**A.** 1.02

**Q.** How did the switch fluorescence ratio turn out when AGAGAATGAT was run?
**A.** 1.02

**Q.** With AGAGAATTAT as the sequence, how does the switch fluorescence ratio read?
**A.** 0.98

**Q.** With AGAGAATTGT as the sequence, how does the switch fluorescence ratio read?
**A.** 0.976

**Q.** How did the switch fluorescence ratio turn out when AGAGAGGCTC was run?
**A.** 0.817

**Q.** Which switch fluorescence ratio does the source give for AGAGATTTTT here?
**A.** 0.953

**Q.** With AGAGCAGGAT as the sequence, how does the switch fluorescence ratio read?
**A.** 1.03

**Q.** AGAGCATTTT was tested. Which switch fluorescence ratio did it give?
**A.** 1.01

**Q.** AGAGCCAATA was tested. Which switch fluorescence ratio did it give?
**A.** 1.16

**Q.** Which switch fluorescence ratio does the source give for AGAGCCGGTC here?
**A.** 0.955

**Q.** Which switch fluorescence ratio does the source give for AGAGCGCTTG here?
**A.** 1.01

**Q.** AGAGCGGAAA was tested. Which switch fluorescence ratio did it give?
**A.** 1.01

**Q.** With AGAGCGGTCC as the sequence, how does the switch fluorescence ratio read?
**A.** 1

**Q.** AGAGCGTGGG was tested. Which switch fluorescence ratio did it give?
**A.** 1.06

**Q.** Which switch fluorescence ratio does the source give for AGAGCTAAGA here?
**A.** 1

**Q.** With AGAGCTCCCA as the sequence, how does the switch fluorescence ratio read?
**A.** 1.02

**Q.** For AGAGGATCCT, which switch fluorescence ratio is on record?
**A.** 1.04

**Q.** How did the switch fluorescence ratio turn out when AGAGGCAAGT was run?
**A.** 1.02

**Q.** AGAGGCGATC was tested. Which switch fluorescence ratio did it give?
**A.** 1.04

**Q.** For AGAGGCTCTG, which switch fluorescence ratio is on record?
**A.** 0.984

**Q.** How did the switch fluorescence ratio turn out when AGAGGGCGCC was run?
**A.** 1.03

**Q.** AGAGGGGACC was tested. Which switch fluorescence ratio did it give?
**A.** 1.15

**Q.** Which switch fluorescence ratio does the source give for AGAGGGGGTC here?
**A.** 0.968

**Q.** AGAGGTCCG was tested. Which switch fluorescence ratio did it give?
**A.** 1.09

**Q.** With AGAGGTCGCA as the sequence, how does the switch fluorescence ratio read?
**A.** 0.943

**Q.** For AGAGGTGGTC, which switch fluorescence ratio is on record?
**A.** 1

**Q.** Which switch fluorescence ratio does the source give for AGAGGTTATA here?
**A.** 0.995

**Q.** How did the switch fluorescence ratio turn out when AGAGTAAGCC was run?
**A.** 0.997

**Q.** How did the switch fluorescence ratio turn out when AGAGTACCTC was run?
**A.** 1.07

**Q.** AGAGTCGACA was tested. Which switch fluorescence ratio did it give?
**A.** 1.02

**Q.** With AGAGTGCGCT as the sequence, how does the switch fluorescence ratio read?
**A.** 1

**Q.** Which switch fluorescence ratio does the source give for AGAGTGGAGT here?
**A.** 1.04

**Q.** AGAGTTAGG was tested. Which switch fluorescence ratio did it give?
**A.** 1.02

**Q.** Which switch fluorescence ratio does the source give for AGAGTTTA here?
**A.** 0.978

**Q.** AGATAAATCT was tested. Which switch fluorescence ratio did it give?
**A.** 1.04

**Q.** How did the switch fluorescence ratio turn out when AGATAAGACA was run?
**A.** 0.973
